# Experimental data taken from the supplement of paper PMC3334620.
# Whole data set: some 33,000 sequences, median “E-score (-0.5 to 0.5)” near -0.01, cut for the highest 2% near 0.26. This is one part of the list.
# Biological target: Ste12 (UniProt P13574)
# Assay: PBM E-score (8-mer binding enrichment) (E-score (-0.5 to 0.5)); higher = stronger / more preferred TF binding; most listed sequences are background and not binding sites
# Conditions: protein concentration: 200 nM; construct: GST-DNA-binding domain
# Summary of the method: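 Universal all-10-mer Agilent arrays, double-stranded by primer extension on fresh or once-stripped slides, were probed with about 100-200 nM GST-tagged yeast transcription factors made by PURExpress. Fluorescent anti-GST detected bound protein, and masliner normalised the scans. E-scores from the Universal PBM Analysis Suite were given to each ungapped eight-base word pooled with its reverse complement.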
row,Sequence,PBM E-score
1,AAACTTAG,0.156
2,ATCTGCCC,-0.153
3,CGGAAAGC,-0.00012
4,CATAGATA,0.0703
5,TTCGCGAA,0.222
6,GGCGTACC,0.0594
7,CCAAGTGA,0.0804
8,ATCGCACC,-0.0585
9,AAGGTTCC,-0.0602
10,GTTTTGAA,0.189
11,GGCGGTAA,0.242
12,ATTAGGAG,0.144
13,CCGATAAC,0.0848
14,ACAGTGAT,0.203
15,AATGCGGG,0.17
16,ATGGAAGC,-0.06
17,CAGACATC,0.0108
18,ACGCTGCT,-0.154
19,GAACTAGA,0.0752
20,GGAGGAGA,-0.156
21,CAAATTGC,0.0765
22,CCTCCCAA,-0.136
23,CTTGAATA,0.0442
24,ATGGTGAG,-0.0881
25,GACCAGTC,-0.249

row,Sequence,PBM E-score
1,AGGACAGA,-0.107
2,GCTTCTAC,-0.114
3,AGCAATGG,-0.111
4,CTCCGATA,-0.139
5,AGTTGTAA,0.068
6,ATTTTATA,0.199
7,CCGGTGAC,-0.107
8,ACTAGCAC,-0.0863
9,ATTCCCAG,0.149
10,CCTTCAAA,0.107
11,AAGTAAAG,-0.0589
12,TAGGTAGA,0.0365
13,TTGTCAAA,0.00505
14,GTACTCAC,-0.1
15,AACCGTCA,-0.098
16,CTGGCGAC,-0.182
17,AACCTTCG,-0.00825
18,CGTCTCTA,-0.116
19,ATATGCTA,0.0341
20,GCAAATAA,0.146
21,CCCACTGA,-0.12
22,CCACAGCC,-0.137
23,CCCAGTCC,-0.165
24,CACAAAGG,-0.0142
25,AGCAGACA,-0.129

row,Sequence,PBM E-score
1,ACGGACAT,-0.176
2,GGTCGCGA,0.117
3,AGGGTGCC,-0.129
4,ATAGTCAA,0.0124
5,AATTCAAA,0.114
6,ACCAAGGG,0.0437
7,GGGTGTAA,0.0316
8,CCTCCTAG,-0.0138
9,AGGACTGG,-0.177
10,GTGACATA,0.214
11,CTCCAGAG,-0.117
12,ACTACCGA,-0.175
13,ATTCCGCG,0.139
14,AATATGAA,0.269
15,CTGCCTGA,0.124
16,AAGCCAGA,0.00304
17,AACCTAAT,-0.134
18,CAGCTCGG,-0.168
19,ACACGAAT,-0.0154
20,GTATCGGA,-0.0143
21,TCCACGCA,-0.0741
22,ACGTGACG,-0.00834
23,CTAGCAAC,-0.0574
24,GGACGCAC,-0.0385
25,GTAGAATA,0.249

row,Sequence,PBM E-score
1,TAGATGGA,-0.0808
2,GAGTCCGC,-0.0634
3,CACGGAAA,0.0417
4,ATCACAAT,0.0426
5,GGTATAAC,0.0578
6,ATCGGCGC,0.00224
7,ACGCCTCA,-0.0369
8,GCATTAAC,0.125
9,AGGAAGAC,-0.0549
10,ACACGATG,-0.198
11,AGCTCCAC,-0.176
12,AAATAAGG,0.148
13,TAGCGACA,-0.0752
14,CACCAGAG,0.108
15,AAGACGCA,-0.0206
16,AGTTTTAG,0.12
17,GTTACTTA,0.131
18,GCGCCCGA,0.0411
19,ACCTAATA,0.0933
20,ACAACTAA,0.134
21,ACTGACAA,0.0676
22,GCAAGTCA,-0.13
23,GGACATGA,-0.0141
24,ATCCTAAA,0.0644
25,ACATTTTC,0.144

row,Sequence,PBM E-score
1,GACCTCCC,-0.0963
2,TAGGATAA,-0.0171
3,CGCTAACC,-0.0284
4,ATCGTCAC,0.0116
5,GTGCTTAA,0.0653
6,CCAGAAGG,0.00794
7,TCATCGGA,-0.0428
8,TCGGGGCA,-0.095
9,AGCTGAAA,0.264
10,ATGGCTCA,-0.147
11,AATGTCCT,-0.149
12,AGGTACTC,-0.0759
13,ACCTGCGG,-0.0627
14,CACGATCA,0.0026
15,CGCATGCC,0.161
16,AGGACTCA,-0.199
17,AACCTGAC,0.137
18,AGACCTCA,0.0121
19,TAAGCAGA,0.0155
20,CCAACGCA,0.0286
21,CCCAACGA,-0.00084
22,ACCTTAGT,-0.137
23,GACGACTC,-0.184
24,GAGGGATC,-0.126
25,GAAGTTTA,-0.079

row,Sequence,PBM E-score
1,AGTCGGCG,0.0939
2,ACTCGTGC,-0.211
3,CTCGCAGC,0.0324
4,ACCGATGG,0.0521
5,AGCTATAC,-0.0424
6,GAAGTTGC,-0.16
7,CGACATAA,-0.0078
8,CGTCCCAG,-0.07
9,ACGTGTTG,-0.0628
10,AGATGCTC,-0.136
11,CAGTGGCG,0.0149
12,GTAGGCCA,-0.16
13,CTCCACGC,-0.00372
14,CCCTAGTA,0.0343
15,ACCGACCT,0.0276
16,GACTGAGA,0.0132
17,CTACTCCA,-0.0132
18,ACTCGCCT,-0.0323
19,CATGGTGA,-0.0853
20,GCGTCCCC,-0.16
21,AGGGTGGC,-0.0324
22,CGCTCGAG,0.161
23,ACTAACGG,-0.126
24,ATGGCGTA,-0.0602
25,GCTACTTA,-0.135

row,Sequence,PBM E-score
1,GAAGACTA,-0.0635
2,GATGGCCC,-0.197
3,GATAACAA,0.15
4,CATGTGAA,0.12
5,CATGGCTC,-0.21
6,GGTCAAAA,0.0927
7,CCCAGGGC,-0.256
8,ACCGGACC,0.00077
9,CCAATGTC,0.0116
10,AACAGGAT,0.0667
11,GGGCCAAC,-0.215
12,CTTTGGCA,-0.0669
13,AAAAGGAA,0.188
14,AGCTGGAC,-0.22
15,AAAACTAC,0.0758
16,GACTCTGC,-0.0845
17,GGAATGTA,0.0732
18,CTACCTAA,0.12
19,ACCTTACC,0.116
20,TAGCAACA,0.0836
21,CCGCTAGC,-0.186
22,GGACGCGA,-0.107
